Results on 22 molecules are retold here after PMC12136788.

Some of the results follow.

B1: chr3:185511523:185511697:-|CDS|ENSG00000163898|control|control|control (ssRNA)
RNA: GGGAGUUCUACAGUCCGACGAUCUAAUCAAGAUCUGGAUAAAGUGGCUGCAAUUUCCUUGAUGUUCUCUACAGGAUCUCUAAUAGGCCCAAGGUACAAGCUCAGGAUUCUCCGAAUGAAGUUAAGGUCCCUUGCCCAUCCGGACAACAGAGGAUUGAGCAUCA
B2: chr8:108778973:108784180:-|three_prime_utr|ENSG00000164841|control|control|control (ssRNA)
RNA: GGGAGUUCUACAGUCCGACGAUCAAGUUUAUUUCACAAACCAACAGCCAGUAAGUGUUUUUGUUCUCUAUGUGUCUUCUAUUUAGAAGAAAAGCCAUGUAAGAUGUAUAAGAAACCACAACCAGCCACACCUAUCCUUCUGAACAACAGAGGAUUGAGCAUCA
B3: chr2:160273923:160274028:-|3pUTR|ENSG00000153250|unk|total|mutant (ssRNA)
RNA: GGGAGUUCUACAGUCCGACGAUCGGGCUUUUAAAAGGCCGUCAAUAAAAGUUGCUGAAAUUUUGGCUUUUUUAAAUAUGCCGCCGGUGUUUUUAAUGAUUUUUCACAUAAUGUGUAAGGCCGUGAAAUGCAAGAAGGGAAAAACAACAGAGGAUUGAGCAUCA
B4: chr3:43366700:43366801:-|3pUTR|ENSG00000160746|unk|total|mutant (ssRNA)
RNA: GGGAGUUCUACAGUCCGACGAUCACGGUGGCAGGGGGGGUACCCGGGGCAGCAUCGUGGCUCCUGAACCCAGACCCAAUGCUCCGCCAAACGAAGUGGCUCCCAUGUGGCAAGCACCCUUCUCAGUUUCGCAGUGGCUUGGCUCAACAGAGGAUUGAGCAUCA
B5: chr7:44121865:44121972:-|CDS|ENSG00000106628|unk|FALSE|unique (ssRNA)
RNA: GGGAGUUCUACAGUCCGACGAUCGUGCCAGUGGCAACCUACACCAACUCCUCACAACCCUUCCGGCUAGGAGAGCGCAGCUUUAGCCGGCAGUAUGCCCACAUUUAUGCCACCCGCCUCAUCCAAAUGAGACCCUUCCUGGAGCAACAGAGGAUUGAGCAUCA
B6: chr1:43997547:43997739:-|CDS|ENSG00000196517|control|control|control (ssRNA)
RNA: GGGAGUUCUACAGUCCGACGAUCAAGCAGAGACUGGGGCCCUGCCCUCCUGGAGCACCGGACAGGGCGCUACGCCCCCACCAUAGCCCCCUCUCCUGAGGACGGCUUCGAGGUCCAGCCACUGCACCCGGACAAGGCGCAGAUCAACAGAGGAUUGAGCAUCA
B7: chr12:108522223:108522324:-|3pUTR|ENSG00000075856|msi1|total|mutant (ssRNA)
RNA: GGGAGUUCUACAGUCCGACGAUCUCAGUCGGGUUUUCUAUAUUUUUUUAACUUAACAUUUUUUAAUAUAACCGAUUAAAAAGCCGACAGAACAGUAAAAUAAACUCCUGUGUGCCUACCAUUCAGCUUCCAGCAUUCCUCAACCAACAGAGGAUUGAGCAUCA
B8: ENSG00000120265:stop:overlap|stop_codon|ENSG00000120265|stop_codon|NA|stop_codon (ssRNA)
RNA: GGGAGUUCUACAGUCCGACGAUCUAGCUGACUCUACAGGAGAAGAAAUUUUUAGCUGCCGUACUUUAGAGGGACUGUUUUACUAGAUGAGCACGUUACCCUUUGGCAUGAUUAUAUUUUCUAAUUUUAACUGCUGGGUGACAGCAACAGAGGAUUGAGCAUCA
B9: chr14:44928120:44928223:-|3pUTR|ENSG00000179454|unk|FALSE|unique (ssRNA)
RNA: GGGAGUUCUACAGUCCGACGAUCUAGUACAGCAGGCCUCCCAGUGCUGAUGUAAAUAUUUGAGCAGUGUUUAGUACCAUUCUUAGUGCAUAUUAAUUUUUUUAUAUAUCCUUAUAAUUUUAGUUUUUUAAGAUCUUUGCUUUUCAACAGAGGAUUGAGCAUCA
B10: chr10:11763304:11763405:+|CDS|ENSG00000134463|unk|FALSE|unique (ssRNA)
RNA: GGGAGUUCUACAGUCCGACGAUCGGGCUGCUUAGCAAGGUGGUGCCAGAGGCGGAGCUGCAGGAGGAGACCAUGCGGAUCGCUAGGAAGAUCGCAUCGCUGAGCCGUCCGGUGGUGUCCCUGGGCAAAGCCACCUUCUACAAGCAACAGAGGAUUGAGCAUCA
B11: ENSG00000198589:be:win_4601|CDS|ENSG00000198589|bound_else_gene|NA|bound_elsewhere_windowed (ssRNA)
RNA: GGGAGUUCUACAGUCCGACGAUCUGGCAGUAGUAUACUUUAUCUCUGUUCUUAUGGUCUCCAAGUACAGAGACAUUUUGGAACCCCAAAAUGAAAGGCAUAGCCAGUCAUGUACAGAAACUGGCAGUGAAAAUGAGAAUGUAUCAACAGAGGAUUGAGCAUCA
B12: chr10:67912576:67912687:+|CDS|ENSG00000096717|unk|total|mutant (ssRNA)
RNA: GGGAGUUCUACAGUCCGACGAUCUUUUGAUGCCGAGCUUCUUGGAGACUGUGAUGUCAUAAUUAAUGAAUUGUGUCACCGGUCCGGUGGUGAAUAUGCCAAACUUUGCUGUAACCCUGUAAAGCUUUCAGAAAUUACUGAAAACAACAGAGGAUUGAGCAUCA
B13: chr2:27041412:27041530:+|3pUTR|ENSG00000119777|msi1_unk|total|mutant (ssRNA)
RNA: GGGAGUUCUACAGUCCGACGAUCACUUCAAAAUGCCCAGCCUGCCCCAAAUGCCUCUAAGCCCCUCCCUGUCCCCUCCCUUGCCGUCCUACUUCUUCCAACUUUCCAUUCCCCAUCAUGCUGGGGGUCUUGGUCACAAGGCUCCAACAGAGGAUUGAGCAUCA
B14: chr15:64682558:64682659:+|3pUTR|ENSG00000180357|unk|FALSE|bound_elsewhere (ssRNA)
RNA: GGGAGUUCUACAGUCCGACGAUCCACACUGGUCUUGCCUCUUCUUUUCCACUGCUUGGCUCUUAAGCCUCAGGCAGAUAAACUAGUAUUCCCCCCAGCUUGGGGAACCUUGGAGUCUGCCAGGUCACCUUAGGGCAAGGCCCACAACAGAGGAUUGAGCAUCA
B15: chr17:75827259:75827360:-|3pUTR|ENSG00000092929|unk|total|mutant (ssRNA)
RNA: GGGAGUUCUACAGUCCGACGAUCGGACAGUUUGGCUGCUGUGUCUGCUGCGCACGCCCCCUCCCCGGACAGCACCUGCCACCCCGAAACUUUCUCCGCAAAAAAAUUAAUAAAAACAAAUCCAUUGUCCUCUUAAAAUAUGCCCAACAGAGGAUUGAGCAUCA
B16: ENSG00000136451:be:win_3101|3pUTR|ENSG00000136451|bound_else_gene|NA|bound_elsewhere_windowed (ssRNA)
RNA: GGGAGUUCUACAGUCCGACGAUCUUCCAUUUAUACCCUACUGUGUCAGUUCAAGCAUCAAAAUACCUUGCAUCUGAGACAGACUUCCUACAUCAGGGACAGGUAUCUGUGUGUCAUUAUACAAAACAGUUCUAGGGGGUUGAACAACAGAGGAUUGAGCAUCA
B17: chr9:122916526:122916627:-|3pUTR|ENSG00000171448|unk|total|mutant (ssRNA)
RNA: GGGAGUUCUACAGUCCGACGAUCAUGCUUCCCCGCAUUGUGAUUUUUACAUGAUCCAGCCAAAGAGUACCAAUUCUAUGCAACCGUGAGACUCUACCCUGUCAACCAAACAGCAUUUUUUGGUAUUUUCUGUCAACAUCAUUUCAACAGAGGAUUGAGCAUCA
B18: chr19:13098382:13098626:+|3pUTR|ENSG00000008441|msi1|total|mutant (ssRNA)
RNA: GGGAGUUCUACAGUCCGACGAUCACGCAGUAUAUACGAGUAUCUCUAUAUACCGUACUAAUGGAUUUGGUGUGCUUCCCCCUCCGCGUCCCCCUCCCUCUGCUCCUCCUCCUUCAGCCUGGUCUCCCCCUCUUCUCUGCCCUCCAACAGAGGAUUGAGCAUCA
B19: chr1:45003092:45003193:-|3pUTR|ENSG00000126107|msi1|FALSE|unique (ssRNA)
RNA: GGGAGUUCUACAGUCCGACGAUCGGAAUCUUCCACAAGCCCAGCACAAGCUGCCAGGCCUGAGCUACUUGAAGGGGGCCAUCUAGGUCCCCAACCCAUGGACUUUGCCUCCAUUUUCAGCUCCGCCUUUUUUCUCCUAUUUUCCAACAGAGGAUUGAGCAUCA
B20: chr1:161190761:161190881:-|3pUTR|ENSG00000158859|msi1|FALSE|unique (ssRNA)
RNA: GGGAGUUCUACAGUCCGACGAUCUGCGGGUCACAGGAGGGAGGGGGAAGGCAGGGAGGGCCUGGGCCCCAGUUGUAUUUAUUUAGUAUUUAUUCACUUUUAUUUAGCACCAGGGAAGGGGACAAGGACUAGGGUCCUGGGGAACAACAGAGGAUUGAGCAUCA
B21: chr4:150908776:150908877:-|CDS|ENSG00000198589|msi1|FALSE|bound_elsewhere (ssRNA)
RNA: GGGAGUUCUACAGUCCGACGAUCGUUGAUUUGUACUUAGAUUCUCUUUGUGGCAUACUAUUUAACUGUUUUUAAUUAAUUCUUAGGGUACAUUUAAAUUCAAAGCAGAAAGCGACCUUUUCCUUGCUGAGCAUCACAAACUUUCAACAGAGGAUUGAGCAUCA
B22: chrX:152990254:152991598:-|CDS|ENSG00000198883|control|control|control (ssRNA)
RNA: GGGAGUUCUACAGUCCGACGAUCAUACAGGGAGGCUUACCCCCAUUAGUGAAACGCAGGCGGCUGUUAGGCAGUGAAAGCACUAGGGGAGAAGACCAUGGCCAGGCCACGUAUCCCAAGGCUGAAAACCAGACUCCAGGCAGGCAACAGAGGAUUGAGCAUCA

The experiment deals with MSI1 full-length (mouse, UniProt Q61474 1-362). Nature of the experiment: nsRBNS (natural sequence RNA bind-n-seq); RBNS binding buffer (assumed for nsRBNS): 25 mM Tris pH 7.5, 150 mM KCl, 3 mM MgCl2, 0.01% Triton X-100, 500 ug/ml BSA, 20 U/ml SUPERase-In, 4 C; UNK is unkempt and MSI1 is Musashi-1; names of the RNAs are library labels; protein concentration not given here; high values mean tight binding.
Sequence of UniProt Q61474 (Q61474 whole entry): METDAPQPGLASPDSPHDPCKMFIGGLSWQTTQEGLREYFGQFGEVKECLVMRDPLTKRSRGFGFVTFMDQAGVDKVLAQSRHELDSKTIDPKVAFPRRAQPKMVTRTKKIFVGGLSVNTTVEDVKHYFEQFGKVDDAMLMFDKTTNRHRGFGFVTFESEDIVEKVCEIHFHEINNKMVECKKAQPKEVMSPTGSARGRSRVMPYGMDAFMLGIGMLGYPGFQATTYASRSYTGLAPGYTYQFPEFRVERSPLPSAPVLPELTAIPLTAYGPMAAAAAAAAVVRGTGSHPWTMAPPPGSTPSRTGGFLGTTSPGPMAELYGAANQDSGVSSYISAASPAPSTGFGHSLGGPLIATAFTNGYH
In turn, B1 gave a binding signal of 0.225 enrichment R. As to B2, the binding signal was determined as 1.27 enrichment R. In turn, B3 came in with a binding signal of 0.329 enrichment R. In the case of B4 it was 0.466 enrichment R; in that of B5, 0.629 enrichment R; in that of B6, 0.351 enrichment R. For B7, the binding signal was 0.95 enrichment R. In the case of B8 it was 1.09 enrichment R; in that of B9, 35.6 enrichment R. Turning to B10, the binding signal stood at 0.504 enrichment R. To B11 belongs 0.339 enrichment R. To B12 belongs 0.172 enrichment R; to B13, 0.832 enrichment R; to B14, 0.307 enrichment R. In the case of B15 it was 0.516 enrichment R; in that of B16, 0.41 enrichment R. B17 came in with a binding signal of 0.226 enrichment R. In the case of B18 it was 0.998 enrichment R; in that of B19, 0.465 enrichment R; in that of B20, 14.9 enrichment R. In the case of B21 it was 5.5 enrichment R; in that of B22, 0.808 enrichment R.
